In all, about 310,000 compounds went through this assay and about 2,200 (0.71%) showed an effect of 50% or more. The effect is printed as a negative number. The list shows a part of the results.
biological target: human ether-à-go-go-related gene (hERG) potassium channel (human, UniProt Q12809); assay: primary screen, population patch clamp on CHO cells stably expressing hERG
Sequence (Q12809 whole entry, looked up): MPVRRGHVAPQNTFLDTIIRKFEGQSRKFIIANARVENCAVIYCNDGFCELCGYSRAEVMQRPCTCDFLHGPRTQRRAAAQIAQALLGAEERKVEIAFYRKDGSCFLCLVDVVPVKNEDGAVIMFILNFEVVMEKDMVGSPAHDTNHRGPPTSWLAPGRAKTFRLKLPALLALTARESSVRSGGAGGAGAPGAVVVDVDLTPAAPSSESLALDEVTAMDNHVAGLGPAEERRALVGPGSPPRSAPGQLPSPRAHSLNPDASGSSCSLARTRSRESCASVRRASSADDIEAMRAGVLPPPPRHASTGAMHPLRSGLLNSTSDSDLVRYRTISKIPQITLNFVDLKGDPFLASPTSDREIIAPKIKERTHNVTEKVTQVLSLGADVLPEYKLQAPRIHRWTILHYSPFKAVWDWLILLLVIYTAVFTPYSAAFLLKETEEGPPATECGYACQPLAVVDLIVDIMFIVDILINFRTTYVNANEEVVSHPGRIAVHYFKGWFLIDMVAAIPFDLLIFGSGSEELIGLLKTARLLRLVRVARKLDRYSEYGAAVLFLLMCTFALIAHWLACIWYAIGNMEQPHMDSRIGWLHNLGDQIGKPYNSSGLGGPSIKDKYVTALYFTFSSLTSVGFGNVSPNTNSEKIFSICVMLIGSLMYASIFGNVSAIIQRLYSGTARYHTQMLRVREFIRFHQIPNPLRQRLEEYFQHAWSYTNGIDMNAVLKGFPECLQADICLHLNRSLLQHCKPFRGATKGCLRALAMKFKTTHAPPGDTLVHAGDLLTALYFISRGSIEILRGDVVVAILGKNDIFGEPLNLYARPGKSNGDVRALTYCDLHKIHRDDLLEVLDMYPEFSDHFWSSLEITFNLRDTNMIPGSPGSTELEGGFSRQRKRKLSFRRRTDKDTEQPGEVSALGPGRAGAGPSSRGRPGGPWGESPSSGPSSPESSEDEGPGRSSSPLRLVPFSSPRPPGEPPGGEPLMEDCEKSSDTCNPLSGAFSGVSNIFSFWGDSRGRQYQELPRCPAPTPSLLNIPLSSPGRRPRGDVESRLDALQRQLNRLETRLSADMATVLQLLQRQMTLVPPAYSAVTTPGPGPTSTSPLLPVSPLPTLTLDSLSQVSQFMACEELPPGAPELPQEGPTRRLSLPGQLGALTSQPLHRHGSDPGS

Compound	hERG current change (%, negative = inhibition) at 1uM [%]
Cc1ccc(C(=O)Nc2ccccc2C(=O)NCc2ccco2)cc1S(=O)(=O)N1CCCCC1	9.27
O=C(CCN1CCCCO1)N1CCCC(N2CCN(c3ccc(F)cc3)CC2)C1 (stereo not drawn)	21.9
NC(N)=NC1=NC(=O)C(Cc2ccccc2)S1 (stereo not drawn)	6.52
CCc1nc2oc3cc(OC)ccc3c(=O)c2c(=O)n1-c1ccccc1	6.71
O=C(Nc1ccc(S(=O)(=O)N2CCOCC2)cc1)c1cc(-c2ccccc2O)n[nH]1	8.79
CCn1nc(C(=O)Nc2cc(Cl)ccc2-n2cncn2)c2ccccc2c1=O	2.9
CC1(C)Cc2nc(N3CCOCC3)c(C#N)cc2CO1	12
CCOc1ccc(Oc2ccccc2NS(=O)(=O)c2ccc(CCC(=O)O)cc2)cc1	14.9
O=C1C(=O)N(CCN2CCOCC2)C(c2ccncc2)/C1=C(/O)c1ccc2c(c1)OCO2 (stereo not drawn)	9.98
O=C(COc1ccccc1)Nc1c(C(=O)N2CCC(N3CCCCC3)CC2)oc2ccccc12	-9.1
CN(CCC1CCCCO1)C(=O)CCc1nnc(CCCCc2ccccc2)o1 (stereo not drawn)	4.71
O=C(Nc1cccc(O)c1)c1ccc(Br)cc1	-0.53
O=C(Cn1ccn(-c2ccc(F)c(F)c2)c(=O)c1=O)NCCc1ccccc1	9.08
O=C(CSc1nc2c(sc3ccccc32)c(=O)n1Cc1ccco1)NCC1CCCO1 (stereo not drawn)	-0.521
CCN(CC)c1ccc(/C=c2\sc3nnc(-c4ccccc4Cl)n3c2=O)cc1	4.69
Clc1cccc(NCc2cn3cccnc3n2)c1	11.8
CCOC(=O)c1cnc(SCC(=O)OCC(=O)N(CC)C2CCS(=O)(=O)C2)nc1N (stereo not drawn)	2.16
Nc1ccc(-c2nc3ccccc3s2)cn1	14.7
O=C(c1cccc(C(F)(F)F)c1)C1CCCN(Cc2cccn2-c2ncccn2)C1 (stereo not drawn)	-105
Cc1cccc(NC(=O)CCN2CCCC(C)C2)c1.Cl (stereo not drawn)	10.4
NC1=C([N+](=O)[O-])C(c2ccccc2)C2=C(CCCC2=O)O1 (stereo not drawn)	24.8
COc1nc(NC(C)C)nc(N(C#N)CN2C(=O)c3ccccc3S2(=O)=O)n1	0.394

Compound	hERG current change (%, negative = inhibition) at 1uM [%]
O=C1CC(c2ccc(S(=O)(=O)NCc3ccncc3)cc2)CN1 (stereo not drawn)	-3.29
CCN(CC)CCn1c(=S)[nH]c2cc(C(=O)N3CC=C(c4ccccc4)CC3)ccc2c1=O	4.14
CCn1c(SC(C)C(=O)O)nnc1-c1cccnc1 (stereo not drawn)	-0.855
c1ccc2nc3ccccc3nc2c1	11
CC1CN(C(=O)CCC(=O)NCc2ccccc2)c2ccccc2O1 (stereo not drawn)	12.8
CC(=O)Nc1cc(-c2ccccc2)ccc1O	9.3
CCCN1C(=O)/C(=C\C=C2/Sc3ccccc3N2CCO)SC1=S	14.5
CCOC(=O)C(C(=O)OCC)C(Nc1ccccc1)c1ccccc1 (stereo not drawn)	10.1
Cn1c(CC(=O)Nc2ccccc2F)nnc1SCC(=O)NC1CCCC1	10.5
COc1cc(C(=O)NCCC(=O)N2CCC3(CC2)NCCc2[nH]cnc23)cc(OC)c1OC	8.82
CCOc1cccnc1Sc1ccccc1	7.37
COc1cc(CN2CCCC(N3CCN(c4ccccc4C)CC3)C2)ccc1O (stereo not drawn)	-7.03
O=C(Cc1nc(=O)c2ccccc2s1)Nc1ccccc1	15.8
CC(=O)N(Cc1cccs1)Cc1cc2cc(C)c(C)cc2nc1Cl	-4.09
CCOC(=O)N1CCC(NC(=O)c2cccc3c2C(=O)N(c2ccc(OC)cc2)C3)CC1	-2.11
CC(C)(C)c1ccc(C(=O)O/N=C(\N)c2ccccc2)cc1	15.2
Cc1cc(-c2ccccc2)nc(-c2ccccc2)c1C	8.77
CCOCCOc1cccc(C(=O)NC(c2ccccc2)c2ccccc2)c1	15.6
Cc1[nH]c2ccccc2c1C(=O)C(=O)NCc1ccco1	21.5
CCCCN1C(C(=O)Nc2cc(C)on2)=C(O)c2ccccc2S1(=O)=O	12.7
CCOC(=O)c1c(C)n(CC(O)CN2CCOCC2)c2cc(Br)c(OC)cc12.Cl (stereo not drawn)	3.63
O=[N+]([O-])c1ccc(N2CCN(S(=O)(=O)c3ccc(Cl)cc3)CC2)cc1NCc1cccnc1	8.26

Compound	hERG current change (%, negative = inhibition) at 1uM [%]
O=C(NC1CCN(C(=O)NCc2ccccc2)CC1)c1ccco1	8.74
Cc1ccc2cc(C)c(Sc3nnnn3-c3ccccc3)nc2c1	-5.69
Cc1cccc(NCc2nc(SCC(N)=O)n[nH]2)c1	-0.282
CCC(=O)c1ccccc1OCCN1CCN(Cc2ccccc2)CC1.O=C(O)C(=O)O	-21.9
Cc1ccc(-c2noc(CCC(=O)NCC3CCCO3)n2)cc1 (stereo not drawn)	7.29
O=C1[C@H]2[C@@H](/C=C/c3ccccc3)N3C(=O)CN(CC4CC4)C(=O)[C@@]3(Cc3ccccc3)[C@H]2C(=O)N1c1ccccc1	4.59
COCCNC(=O)/C(C#N)=C/c1ccc(C)o1	-3.17
Cl.Fc1ccc2c(c1)nnn2C1CCN(Cc2nnnn2C2CCCCC2)CC1	2.29
COc1ccc(OC)c(NC(=O)N2CCCc3ccccc32)c1	4.47
CC(Sc1nccn1C)C(=O)Nc1ccccc1 (stereo not drawn)	-2.42
CC(=O)Nc1ccc(NC(=O)C(C)OC(=O)CCc2nc3ccccc3s2)cc1 (stereo not drawn)	10.6
O=C(NC1CCS(=O)(=O)C1)c1ccc(S(=O)(=O)N2CCCC2)cc1 (stereo not drawn)	17.6
Cc1cccc(NC(=O)CSc2nc3ccc(N4C(=O)c5ccccc5C4=O)cc3s2)c1C	15.1
CC1(C)C2CCC1(CS(=O)(=O)N1CCOCC1)C(=O)C2 (stereo not drawn)	-2.61
COc1cc(SC)ccc1C(=O)N1CCN(c2ccccc2)CC1	3.69
Cc1ccc(C)c(Cn2cnc3c(cnn3C(C)(C)C)c2=O)c1	15.2
CCOC(=O)C1=C(N)Oc2cc(C)[nH]c(=O)c2C1c1ccncc1 (stereo not drawn)	2.87
CN(C)CCN(C(=O)c1ccc2c(c1)OCCO2)c1nc2ccc(Cl)cc2s1.Cl	10.8
OCCN1CCN(C(=S)c2ccc(Cl)cc2)CC1	9.29
CCOc1ccc2nc(SCc3cccc(C)c3)nc(C)c2c1	6.03
CCCC1C2C(=O)N(c3ccc(OC)cc3)C(=O)C2ON1c1ccccc1 (stereo not drawn)	12.4
COc1ccc(/C=N/NC(=O)CCn2cnc(-c3ccccc3)c2-c2ccccc2)cc1OC	7.62

Compound	hERG current change (%, negative = inhibition) at 1uM [%]
Cc1cc(C)c(OCC(=O)N2CCN(c3ncc(C(F)(F)F)cc3Cl)CC2)c(C)c1	-0.997
COc1ccc2c(c1)C(C)=CC(C)(C)N2C(=O)Nc1ccccc1	-3.18
CCCCc1nnc(NC(=O)c2oc3ccccc3c2C)s1	9.46
Cc1ccc(-c2nnc3cccc(Cl)n23)cc1	3.59
O=c1[nH]c(=S)[nH]c(O)c1N=Nc1ccc(S(=O)(=O)N2CCc3ccccc32)cc1	1.2
CCC(C)(C)NC(=O)C(c1ccc(OC)cc1)N(C(=O)CCC(=O)Nc1cc(C)on1)c1ccc2c(c1)OCO2 (stereo not drawn)	7.04
O=C1Nc2cc3c(cc2Sc2ccccc21)OCCO3	1.55
CCOC(=O)CNC(=O)CCNS(=O)(=O)c1ccc2c(c1)c(=O)n(C)c(=O)n2C	15.7
CCCNC(=O)c1cc(-c2ccco2)on1	4.88
CC(OC(=O)c1ccccc1NS(=O)(=O)c1cccc(C(F)(F)F)c1)C(=O)N(C)Cc1ccccc1 (stereo not drawn)	8.66
COc1ccc2nc(N3CCN(C(=O)C4COc5ccccc5O4)CC3)sc2c1 (stereo not drawn)	-20.9
CCn1nc(C)cc1C(=O)N1CCCC(C(=O)c2ccc3ccccc3c2)C1 (stereo not drawn)	-1.85
CCc1noc(C)c1C(=O)N1CCN(S(=O)(=O)c2cccs2)CC1	3.89
Cc1ccc(C)c(OCCC(=O)Nc2ccc3c(c2)OCO3)c1	-1.16
Cc1nn(-c2cc(N3CCCC3)ccc2[N+](=O)[O-])c(=O)c2ccccc12	13.4
CCOC(=O)C1=C(C)N(CCCC(=O)O)C(=O)NC1c1ccc(Cl)cc1Cl (stereo not drawn)	13.5
O=C(NCc1ccc(F)cc1)C1CC(=O)N(C2CCCCC2)C1 (stereo not drawn)	16.7
Cn1cccc1Cc1nnc(SCC(=O)NC2CCCCC2)n1CCc1ccccc1	-5.47
COc1cc(-c2nc(S(=O)(=O)c3ccc(Cl)cc3)c(N(C)C)o2)cc(OC)c1OC	9.93
Cn1nc(C(=O)N2CCN(S(=O)(=O)c3ccccc3)CC2)c2ccccc2c1=O	-2.03
COc1cc(/C=C2\SC(=O)N(CC(=O)Nc3ccccc3F)C2=O)cc(Cl)c1O	16.8

Source: paper PMC4336329 (PLoS ONE, 2015)
